Measurements from the supplement of paper PMC12217912.
Some of the results follow. Sequences were assembled here from the parent chain. Inactive controls read about 0.05.

B1: TEV protease; numbered along this chain (parent)
chain: MGESLFKGPRDYNPISSSICHLTNESDGHTTSLYGIGFGPFIITNKHLFRRNNGTLVVQSLHGVFKVKDTTTLQQHLVDGRDMIIIRMPKDFPPFPQKLKFREPQREERICLVTTNFQTKSMSSMVSDTSCTFPSGDGIFWKHWIQTKDGQCGSPLVSTRDGFIVGIHSASNFTNTNNYFTSVPKNFMELLTNQEAQQWVSGWRLNADSVLWGGHKVFMVKPEEPFQPVKEATQL

Variants of: B1
Test: raw area under fraction-flipped curve 0-4 h after induction (AUC4h, not background-subtracted), DNA-recorder readout of cleavage of the substrate (dimensionless); higher = more cleavage of the substrate by the protease variant
Conditions: temperature: 34 °C; time window: 0-4 h after rhamnose induction
Experimental: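 In vivo DNA recorder in E. coli TOP10(DE3) ΔrhaA at 34 °C. Each TEVp single-site mutant (parent TEVp 0) is paired with a single-site variant of the 7-mer TEVs (canonical ENLYFQ|S). The substrate sits between flexible linkers in a Bxb1-sfGFP-TEVs-SsrA fusion, so cleavage stabilises Bxb1 and speeds flipping of a recombination array, read by NGS. The value is the raw area under the fraction-flipped curve over 0-4 h after rhamnose induction (AUC4h), with ≥20 reads per time point. It is not background-subtracted; inactive controls average about 0.047.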
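Note: Bxb1 expression induced with 0.2% (w/v) L-rhamnose at OD600 near 0.5, cultures sampled hourly, flipped fraction per protease–substrate barcode pair counted by paired-end Illumina sequencing.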

Variant | area with substrate CNLYFQS | area with substrate HNLYFQS | area with substrate INLYFQS | area with substrate KNLYFQS | area with substrate LNLYFQS | area with substrate MNLYFQS | area with substrate NNLYFQS | area with substrate PNLYFQS | area with substrate SNLYFQS | area with substrate TNLYFQS | area with substrate VNLYFQS | area with substrate WNLYFQS | area with substrate YNLYFQS | area with substrate DNLYFQS | area with substrate FNLYFQS | area with substrate GNLYFQS | area with substrate QNLYFQS | area with substrate RNLYFQS
G80I | 0.0734 | 0.0649 | 0.0652 | 0.0643 | 0.0587 | 0.0527 | 0.0355 | 0.0615 | 0.054 | 0.0569 | 0.0581 | 0.0648 | 0.0595 |  |  |  |  | 
G80Q | 0.0721 | 0.0722 | 0.0663 | 0.057 | 0.0578 | 0.064 |  |  | 0.0711 | 0.0623 | 0.0717 | 0.062 | 0.0615 | 0.0773 | 0.0611 | 0.0697 | 0.0673 | 0.0658
G80E | 0.0675 | 0.0606 | 0.0712 |  | 0.0846 | 0.0832 | 0.0569 | 0.0777 | 0.0687 | 0.0886 |  | 0.0637 |  | 0.0911 | 0.0728 | 0.0797 | 0.0968 | 
G80V | 0.0651 | 0.0694 |  | 0.0594 | 0.0684 |  | 0.0578 | 0.0628 | 0.0633 | 0.0883 | 0.0659 | 0.0598 | 0.0618 |  | 0.0499 |  |  | 
G80M | 0.0678 | 0.0597 | 0.0601 | 0.0555 |  | 0.062 |  | 0.0556 | 0.0633 | 0.057 |  | 0.0502 | 0.0629 | 0.091 |  | 0.0697 |  | 0.0584
V64M | 0.0754 | 0.0629 | 0.067 |  | 0.063 |  | 0.0669 | 0.0415 | 0.0547 | 0.0775 | 0.0739 | 0.0625 |  | 0.0869 | 0.0365 | 0.0571 | 0.0715 | 
M88V | 0.0851 | 0.0604 | 0.0536 | 0.0654 |  |  | 0.0751 |  | 0.0575 |  | 0.0747 | 0.0562 | 0.0585 | 0.135 | 0.0569 | 0.0665 |  | 
M88F | 0.0501 |  |  |  |  | 0.0696 | 0.024 | 0.0549 |  | 0.0386 |  | 0.0709 |  |  |  |  |  | 
M88N | 0.0551 | 0.0452 |  | 0.0499 | 0.04 |  | 0.0509 | 0.0612 | 0.0372 | 0.0495 | 0.0548 | 0.04 | 0.0526 | 0.0536 |  | 0.062 |  | 
M88T | 0.0524 | 0.0659 | 0.0604 |  |  |  |  |  | 0.0746 | 0.0658 |  | 0.0659 |  | 0.006 |  |  |  | 
D69P | 0.0684 | 0.0609 | 0.0646 | 0.0797 | 0.0588 | 0.0689 | 0.066 | 0.0609 | 0.0623 | 0.0665 |  | 0.0594 | 0.0589 | 0.0627 | 0.055 | 0.0802 |  | 
H76C | 0.0734 | 0.0672 | 0.0803 | 0.0738 | 0.0579 |  | 0.065 | 0.0809 | 0.0689 | 0.0656 |  | 0.058 |  | 0.0883 | 0.0645 | 0.0745 |  | 
K120N | 0.0628 | 0.0511 |  | 0.0868 | 0.0649 |  | 0.0741 |  | 0.0763 | 0.0761 |  | 0.0606 |  |  |  |  | 0.073 | 
K120D | 0.0767 | 0.0632 | 0.0635 |  |  | 0.0595 |  | 0.0659 | 0.0712 |  |  | 0.0662 |  |  | 0.0623 |  | 0.0757 | 
K120V | 0.0437 | 0.0714 | 0.0817 |  | 0.0604 | 0.065 | 0.0507 |  |  | 0.0581 | 0.0527 | 0.0622 |  |  | 0.0591 | 0.0653 |  | 
K120C | 0.0738 | 0.071 | 0.0656 |  | 0.0632 |  | 0.0536 | 0.0815 |  | 0.0755 |  | 0.0625 | 0.0439 |  | 0.0669 | 0.0713 |  | 
L112V | 0.0673 | 0.0616 | 0.0544 | 0.0556 | 0.0642 | 0.0603 | 0.0572 | 0.0593 | 0.0568 | 0.067 | 0.0662 | 0.0594 | 0.0557 | 0.0713 | 0.0652 |  | 0.0848 | 
L112G | 0.0605 |  | 0.0557 | 0.0527 |  |  | 0.0027 | 0.0534 | 0.0626 | 0.0617 |  |  | 0.0563 |  |  |  |  | 
L112M | 0.0848 | 0.0621 |  | 0.0585 | 0.0704 | 0.0626 |  | 0.0674 | 0.0646 | 0.0695 |  | 0.0626 | 0.0763 |  |  |  |  | 
L112K | 0.0716 | 0.0632 | 0.0568 | 0.07 | 0.0608 | 0.0661 | 0.0815 | 0.0693 | 0.0656 | 0.0712 | 0.0771 | 0.0596 | 0.0781 | 0.0693 | 0.0594 | 0.0723 | 0.0553 | 
P96R | 0.0757 |  |  |  | 0.0378 | 0.0648 | 0.0704 |  | 0.062 |  | 0.111 | 0.0631 |  |  |  |  | 0.0666 | 
P96C | 0.0758 | 0.0596 |  | 0.0789 | 0.0948 |  | 0.0682 |  |  |  |  | 0.0654 | 0.0714 |  | 0.0655 |  |  | 
P96A | 0.0647 |  | 0.0797 | 0.0759 |  | 0.0879 |  | 0.0759 | 0.0683 | 0.0722 |  | 0.0903 |  | 0.0584 | 0.0603 |  |  | 0.0655
P96E | 0.0725 | 0.0728 | 0.0587 | 0.065 | 0.0657 |  | 0.0653 | 0.071 | 0.0628 | 0.0784 |  | 0.051 | 0.0523 | 0.0776 | 0.052 | 0.0654 |  | 
P96H | 0.0694 | 0.0834 |  | 0.0717 | 0.0627 | 0.069 |  | 0.0818 |  | 0.0783 | 0.0651 | 0.0606 | 0.0635 | 0.0519 | 0.0465 |  | 0.0702 | 
S127T | 0.0672 | 0.0629 | 0.0752 | 0.0806 |  | 0.0673 |  | 0.0689 |  | 0.0633 |  | 0.0633 |  | 0.0721 |  | 0.0416 | 0.0856 | 
F117V | 0.0805 | 0.0641 | 0.0619 | 0.0692 |  | 0.0687 | 0.0535 | 0.0652 | 0.066 | 0.04 |  | 0.0592 | 0.0554 | 0.0795 |  | 0.0629 |  | 0.0529
T119I | 0.0733 | 0.0671 |  |  | 0.0762 |  |  |  |  | 0.0731 | 0.0898 | 0.0586 |  | 0.082 |  |  |  | 0.0749
S121Q | 0.0635 | 0.0723 | 0.0949 | 0.0677 | 0.0616 |  | 0.069 | 0.0628 |  | 0.0694 |  | 0.0622 | 0.0532 | 0.0856 | 0.0682 |  | 0.0632 | 0.0388
